Here are results for 5 molecules from article PMC6057933.

The chains behind the UniProt entries cited, without tags or fusion partners.
UniProt Q9UNE7: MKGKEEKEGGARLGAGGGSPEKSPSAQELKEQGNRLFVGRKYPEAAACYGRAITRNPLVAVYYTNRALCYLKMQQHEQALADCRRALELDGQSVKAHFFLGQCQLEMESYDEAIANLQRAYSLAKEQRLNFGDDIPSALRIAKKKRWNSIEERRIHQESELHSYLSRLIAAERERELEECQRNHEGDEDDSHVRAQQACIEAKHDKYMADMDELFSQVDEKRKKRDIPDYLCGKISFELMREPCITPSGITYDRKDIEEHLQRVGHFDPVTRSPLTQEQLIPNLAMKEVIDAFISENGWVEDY

Experiment [1] deals with T1, interferon regulatory factor-1 (IRF-1), endogenous (human (endogenous in HCC1937)) (UniProt P10914).
T1 sequence: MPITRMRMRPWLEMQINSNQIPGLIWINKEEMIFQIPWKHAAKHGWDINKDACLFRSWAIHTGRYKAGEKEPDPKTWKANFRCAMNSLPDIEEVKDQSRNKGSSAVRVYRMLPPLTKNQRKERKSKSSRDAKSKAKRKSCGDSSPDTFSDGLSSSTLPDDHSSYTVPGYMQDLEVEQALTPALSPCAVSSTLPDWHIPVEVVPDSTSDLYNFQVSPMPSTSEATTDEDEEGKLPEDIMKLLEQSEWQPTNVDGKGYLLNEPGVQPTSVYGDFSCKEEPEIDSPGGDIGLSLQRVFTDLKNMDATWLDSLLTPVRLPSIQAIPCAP
Put plainly: proximity ligation; Duolink In Situ Orange kit; fixed, permeabilised cells transfected with siRNAs (20 pM) and exposed to 5-FU (25 μM, 24 h) or IFN-γ; primary antibodies to XAF1, IRF-1, CHIP; confocal microscopy.

Experiment [2] deals with T2, GST-fused XAF1 (GST-XAF1) (human) (UniProt Q6GPH4).
T2 sequence: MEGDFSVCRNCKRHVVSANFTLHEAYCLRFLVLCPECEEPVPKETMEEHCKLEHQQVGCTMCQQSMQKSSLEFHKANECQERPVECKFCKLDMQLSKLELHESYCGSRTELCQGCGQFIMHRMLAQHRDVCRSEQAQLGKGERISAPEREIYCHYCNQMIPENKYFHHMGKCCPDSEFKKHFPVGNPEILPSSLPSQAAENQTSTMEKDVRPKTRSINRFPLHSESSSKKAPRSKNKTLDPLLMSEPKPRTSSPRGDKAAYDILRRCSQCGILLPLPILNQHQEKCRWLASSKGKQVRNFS
Put plainly: pull-down; in vitro binding of purified GST-XAF1 and r-His-IRF-1 in binding assay buffer, 6 h at 4 °C; complexes separated with protein-A/G Sepharose 1 h; immunoblot; both purified.

The target of experiment [3] is T1, interferon regulatory factor-1 (IRF-1), endogenous (human (endogenous in HCC1937)). As to the kind of experiment: co-IP; endogenous proteins in HCC1937 cells; IP for IRF-1 with rabbit antibody, IB with mouse antibody.
The target in experiment [4] is T3, IRF-1 in the cells of the transfection experiments (human) (UniProt P10914).
T3 sequence: T1 sequence
As to the kind of experiment: co-IP; IP assay of XAF1A or XAF1C with IRF-1 in cells (Fig. 3j).

For experiment [5], the target named is T3, IRF-1 in the cells of the transfection experiments (human). As to the kind of experiment: sequential ChIP; cell lysates precipitated with anti-IRF-1 antibody, the resulting complexes precipitated with anti-XAF1 antibody; PCR of the IRFE region of the PUMA promoter.

These are yes or no findings as the source states them, for the method shown. For some of these results: In cells and extracts the contact can be indirect. Some binding calls cover weakened binding; strength is not graded here. For some of these results: Tags and fused reporters may be left off the sequences shown.

Take “C-terminus of Hsc70-interacting protein (CHIP), endogenous (from UniProt Q9UNE7 1-303) (enzyme)”: the binding entry in experiment [1] is “binds”.

B1: N-terminal His-tagged recombinant human IRF-1 (r-His-IRF-1) (protein, UniProt P10914 1-325)
chain: T1 sequence
On to B1, for which, in experiment [2], the binding result was “binds”.

B2: X-linked inhibitor of apoptosis (XIAP)-associated factor 1 (XAF1), endogenous (protein, UniProt Q6GPH4 1-301)
chain: T2 sequence
Turning to B2, the binding result in experiment [3] and in experiment [1] was “binds” throughout.

B3: WT-XAF1 (XAF1A), expressed from a plasmid in cells (protein, UniProt Q6GPH4-1 1-301)
chain: T2 sequence
On to B3, for which the binding result in experiment [4] and in experiment [5] was “binds” throughout.

B4: XAF1C (protein, UniProt Q6GPH4-5 1-166)
chain: MEGDFSVCRNCKRHVVSANFTLHEAYCLRFLVLCPECEEPVPKETMEEHCKLEHQQVGCTMCQQSMQKSSLEFHKANECQERPVECKFCKLDMQLSKLELHESYCGSRTELCQGCGQFIMHRMLAQHRDVCRSEQAQLGKETSPDPGKCLSITVAAALSAHLWPFT
For B4, the binding entry in experiment [4] was “no binding”.
